Results reported in the supplement of paper PMC11417369.
The other results are listed elsewhere or left out.

These sequences were tested on PF3D7_0420300 AP2 domain 1 (GST-tagged) (assay: gcPBM binding intensity (ln(normalized median fluorescence intensity)); higher = stronger DNA binding).
How it was run: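 An Agilent 4 × 180k array carrying primer-extended double-stranded 36-bp intergenic genomic probes and negative controls received GST-tagged P. falciparum DNA-binding domains expressed in E. coli, about 25 μg on average, for 1 h. The binding buffer contained 1× PBS, 1% milk, 0.2 mg/ml BSA, 0.5% salmon testes DNA and 0.03% Triton X-100. Binding intensity is the top Masliner-normalised natural-log median intensity across replicate spots of either probe orientation, read after Alexa488 anti-GST antibody staining and a 488 nm scan.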

Sequence | gcPBM binding intensity (ln)
TATTAAAAGTAAAAAACACACATGGATATATACATA [CACACA_site3959] | 9.62
AAAAAAAAAAAAAAAAAAAAAAAAATATATATATAT [CACACA_negctrl_site436] | 9.14
GTTGTGTAATTCGTAACACACATAAAATATAAATAA [CACACA_site7799] | 9.48
TTACTATATAATATGTGTACACAACATATAATATAT [XGTACX_site1383] | 9.36
TTTTTTTTTTGATGTTGTACTTATATACTATATAAT [XGTACX_site2778] | 9.41
GCTTCATTTTAAACTTGTACTTATTTTTTGGTAAAT [XGTACX_site8879] | 9.36
TAGTTACTTCTTATATAAAATATGTATATAAAAATA [GTGCAC_negctrl_site190] | 8.81
TTGTTTGTTGTAACGTGTACAGATAAAAATAAAGGG [XGTACX_site375] | 9.28
TTCATATTATAGTGCACACAAAAATATATATATGGT [CACACA_site2855] | 9.48
ACATATTAATTATAAAGTACATATATATATATATAT [XGTACX_site4540] | 9.36
TCTCTCATTTATTTTTGTACTTAATCCAGCACGTTT [XGTACX_site1369] | 9.35
ATATCTTTGCAAAGATGTACTTGTAAAAATATATGA [XGTACX_site768] | 9.08
TATATATATATATATATACACACGTATATATATACA [CACACA_site4155] | 9.5
TAATATCAATATAAAGTACACACTATAGTATGTATT [CACACA_site2280] | 9.45
TAAAAGTAAAGACATGCATGCATTGGTATCTTTTAC [TGCATGCA_site665] | 9.1
GACCCACTTTTCTGCACACATAAAAAATATATAAAT [CACACA_site4483] | 9.76
TATAATAAAACTTTTACACACTTTAAAAAAAAAAAA [CACACA_site6392] | 9.19
TTTATATTTAAATATATATGAGAAAACACAAAATAT [TGCATGCA_negctrl_site211] | 9.4
TAGCGGCGGTATCATGCACACGTATATATTGTAACA [CACACA_site8453] | 9.36
AACATGTATATATTATGTACATATGTTAAAATGATA [XGTACX_site6217] | 9.3
ATAGTTTTATATAAATGTACAAATGATTTCAAATAG [XGTACX_site8236] | 9.09
TTACCTTTTTCTAATGGTACACATAAAATATCATTT [XGTACX_site6825] | 9.11

Sequence | gcPBM binding intensity (ln)
TTTTCTTACACGAATTTTAAATTCAATATTAAACAT [CACACA_negctrl_site286] | 8.98
GAGTTAATTTTTTCGTGTACTTGAAAATATTTTTTT [XGTACX_site6392] | 9.27
TTAGCAACTATTACTACACACATTTGTATATAACTT [CACACA_site6850] | 9.7
GTGGAAATATAACACATTTTTTTTAATAATTATATT [TGCATGCA_negctrl_site522] | 9.01
TTTATTATAATATGTTGTACAAGACGTTTCAGTATA [XGTACX_site4486] | 9.13
AAATTATCTTAATAGGATGTTCAAGGAGAAAGATGA [CACACA_negctrl_site1032] | 9.22
TAAATTAATACCTATGCACACATTTTTTTTTTTAAA [CACACA_site1238] | 9.28
CTTAAATTTTTAAATACACACATACACCCATACACA [CACACA_site4461] | 9.64
AAACCCTATTCAATGCAATAATTTTATAATTTTTTT [TGCATGCA_negctrl_site434] | 9.09
TTTTTTTTAAATATCACACACATATAATATATTCTA [CACACA_site3668] | 9.43
AAAATATAAAAAGTCACACATATATATATTTATTTA [CACACA_site4872] | 9.24
TTGAATGAAAAAATTTGTACTCATATAAATAATTTA [XGTACX_site4628] | 8.79
CAATAATTTTTTGTGGGTACAAATAATTTTTTAAAT [XGTACX_site2407] | 8.96
AGGAGAAAAGATAAAGACTTCAAGAAAAAAAAATAA [TGCATGCA_negctrl_site258] | 9.08
TATTTTATGTAAATTGGTACACATATGTCAGTAAAA [XGTACX_site7111] | 9.2
GATGCTAAAATTTATACACACAAAAAAAAAAAATTC [CACACA_site3284] | 9.42
AAAAAAAAAAAATATACACACACACCGACACATAAA [CACACA_site9270] | 10.1
TTTTGAATATTTGGTCGTACGTAAAAATAGATAATT [XGTACX_site5755] | 9.05
TTTCATATTTTGTCCTGTTTTTTTTTTTTTTTTCTT [CACACA_negctrl_site993] | 9.65
AAAAGAATTACTTTCACACATATATATCTGTAAATA [CACACA_site5798] | 9.15
TACATATTTATATACACACACACCCTAAAAATATAT [CACACA_site6861] | 10.1
AATAATGAAGCTTATGCACACGTTCATTATTTATAT [CACACA_site5736] | 9.41

Sequence | gcPBM binding intensity (ln)
ATAATTTTTTTTTTTTTTTTTTGAAAGTAGCATATG [CACACA_negctrl_site732] | 8.74
TAACAAAACCTTATATGTACACACATATACATCACA [XGTACX_site6772] | 9.61
TTATCATTTTAAATCACACACATATATATATATATA [CACACA_site2849] | 9.36
TTAAAAATGAACATATGTACATATATATATATATAT [XGTACX_site7923] | 9.33
ACTACAAGGCAATACAGTACATATAAATGTCATAAT [XGTACX_site8468] | 9.4
TACCTTTTATTAATGTGTACCTAAAATATAATACTT [XGTACX_site192] | 9.42
AAAAAGGTTATTGGTACACACATATGTATTTATATA [CACACA_site4464] | 9.57
TTTAAAAATTTGATCAAACACACGTTGCATAAATTA [CACACA_site3945] | 9.11
AAAACAAAAATATAAACACACATACATTGGTTTTCT [CACACA_site5405] | 9.71
TCTATATAATACCAATGTACATAGTTTTAAGCATAA [XGTACX_site1889] | 9.07
AGGATATGCAGACACACACACATATAGATTTATATA [CACACA_site7100] | 9.73
ATAATATAAACATACACACACACATATATATATATA [CACACA_site5591] | 10
ATAAATTGTAAAATGTGTACGCAGATATTGCGTATT [XGTACX_site332] | 9.3
TTTTGTCTTCAAATCAAATGTATATAAAAAAAATAC [CACACA_negctrl_site1717] | 8.92
AATAGTGTATAAATTTGTACATATAATTAAAAGGAA [XGTACX_site1143] | 9.36
AACTTGTGTGGATATTGTACTAACAATATGTATGAT [XGTACX_site6302] | 9.13
AATAACTTTTTGAGATGTACATTTTTAATTCGTAGA [XGTACX_site8455] | 8.9
TTATTCGAACAAAGGAAAAAATATATTCAAAGGAAA [TGCATGCA_negctrl_site215] | 9.17
ATTCATAAAAAGAGGTGTACATTAATATAATATATA [XGTACX_site8283] | 9.29
GGATTTATTTTATATACACACATACCTATATTTATA [CACACA_site7084] | 9.58
ACTTTAATAATTCACTTATTTTCTTATTATATTATT [CACACA_negctrl_site556] | 9.61
TTTTTAACTAACATATCAATTCCATACGTCGTCAAA [CACACA_negctrl_site560] | 8.82

Sequence | gcPBM binding intensity (ln)
TAAAATATTGTTATTACATGCAACCTTATGAAAAAT [TGCATGCA_site706] | 9.17
ATATAAAATAATAAGGGTACAGGTCTCTGCGATGTT [XGTACX_site786] | 9.55
AGAATTTTAGATTTAGCACACATTTTTTTTTTTTTT [CACACA_site4081] | 9.21
ACTCGCATATTTAAATGTACTTAATTAGAAGAAAAA [XGTACX_site3304] | 8.88
AAAATTAAAATAGTAATACACACTTCATAGGAAATG [CACACA_site1762] | 9.47
AACAAGAAATAATCACGTACACATTATAATAACTAA [XGTACX_site8184] | 9.49
CTTTAATATTTTATTTCACACACATAAATGCCCCAA [CACACA_site8569] | 9.56
AAAAAAAAAGATCACACACACATAAATATAAACAAA [CACACA_site5285] | 10.2
TGATATTATTATAAGGTGCTTAAAAATAAAGATAAT [GTGCAC_site9539] | 9.11
AAAAAAAAAAAAAAAAAAAAAAAAAAAAGTTAAAAA [TGCATGCA_negctrl_site74] | 9.05
AGTAATAGTTTGTGCACACTCAAGTATATCATAGAT [CACACA_site6082] | 9.54
ATTTTTGTAAATACATGTACATATATATGCATATCC [XGTACX_site6353] | 9.49
TTTCGCTTTATTTATGCATGCAAATAAGTTGATATT [TGCATGCA_site724] | 9.24
TACATATATACATACACACACATATAACCAATGTAG [CACACA_site2192] | 10
AAGAAAAATATTCGTGTGCACAGAAGTATATGTGTG [GTGCAC_site9814] | 9.64
TATTGTAAGAAAGGCACACAGATAAAATTATTATAT [CACACA_site2921] | 9.48
ATCATCTTTATTCAAGTGCACTGAAAATTTTTTATA [GTGCAC_site9801] | 9.22
ATATAAGTGTATCTAACACACAAATATATAAAAATG [CACACA_site1956] | 9.55
ATAATTATATGGCTAGCACACAATAAATAATTATAT [CACACA_site3815] | 9.29
ACAAGTTAAAATATTACACACATATAAATATTTATA [CACACA_site7467] | 9.47
ATATAAATAAAAAAAAAAAAAAAAAAAAAAAAAAAA [CACACA_negctrl_site972] | 8.55
